The list shows a part of the results.
What follows are sequences tested on T1, Caupolican (Caup) homeodomain DNA-binding domain (assay: PBM E-score (8-mer, recovered from the published 9-mer minima) (E-score (dimensionless, -0.5 to 0.5)); Drosophila protein; higher = stronger relative binding preference, active = 0.31 or more).
T1 sequence: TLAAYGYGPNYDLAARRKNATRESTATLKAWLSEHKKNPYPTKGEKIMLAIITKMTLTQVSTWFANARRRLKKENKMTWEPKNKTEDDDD
Summary of the method: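 Caup's homeodomain DNA-binding domain (residues 214-303) was produced by in vitro transcription and translation and applied at 100 nM to custom-designed protein binding microarrays. Each value is an enrichment score giving relative binding preference for a short DNA word; higher means stronger. Published 9-mer scores were the minimum of their two constituent 8-mer scores, and the 8-mer values were recovered from those minima. A cutoff of 0.31 marks candidate binding sequences.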

PBM E-score, ≥ 0.0138:
AGGGAAAA

PBM E-score, ≥ -0.0277:
AAGCCGTA

PBM E-score, ≥ -0.0164:
TACCCCTA

PBM E-score, ≥ 0.0782:
ATCTAGAA

PBM E-score, ≥ 0.104:
ATCGCTAA

PBM E-score, inactive:
AAATATCG 0.12
TAGGAAGA -0.0388
GAGGCGCC -0.271
CGTTGTTA 0.305
CAACTACG 0.152
CGAGTACG -0.00922
AGTGTTGG 0.014
CACCCCAC -0.0746
AGCTCGGA -0.128
CAGGGACA 0.0744
GTATTTCA 0.137
CGCACGCA -0.157
TATGCGGA -0.0186
ACGGATTC 0.0267
GAGCTCAC -0.177
CAATGTGA 0.187
ATCTACAG 0.158
AGACGGGC -0.193
AAGTCTCT -0.0709
ACAGACAA 0.289
CCTACTTA 0.0269
GCTGGCCA -0.192
CTAGGGTC -0.0576
CACGGGCG -0.145
AGTTGCTA 0.167
CAGACACA 0.179
AGCCTTGA -0.093
ATCGGTAA 0.109
AGGCACAG -0.0452
TCACTCGA 0.0702
CGAGGCAA -0.016
CGAATAAA 0.00592
AACAGCGT 0.145
AATCAGCT 0.0751
CAAACCCC -0.0734
CGTGACGC -0.0156
ATTAACTG 0.152
GATCGGAA 0.052
GATAATGC 0.0936
GAATAAGC 0.0891
ACAAAGAA 0.152
CTGAGGCC -0.219
TGCTAGAA 0.0542
GTCTCCTA -0.0168
AAGGCATA -0.0141
AAGGCAGT -0.0372
GTGGGTCA -0.103
ACGTACGG -0.00051
GATATCGC 0.0708
ACGCATGG -0.0779
CTGCTAAG -0.143
AGACCGAA -0.0369
GAATAGAA 0.126
CGAGGGCA -0.147
GCACACGA -0.0434
AATCATTC 0.0967
ATCGGTGC 0.023
ACTAGACC 0.023
AACTCGCC -0.0173
ACACAACG 0.206
ATACAAAG 0.143
CACCTGTA 0.177
GGAGGCAC -0.154
ACTTACCG 0.0553
AAAAAGGG -0.138
AGAGGGTC -0.198
AACTGGGA -0.054
GCTACCCA -0.155
GACAGAGC 0.0238
AAGTCGTC 0.0133
CAACACAC 0.246
CTGCATTC 0.013
CGCAAGCG -0.144
GGTCGGAC -0.0568
AGCCGTTC -0.195
ATATCAAA 0.138
AGTGTAGA 0.162
ACTCGATG 0.143
CGCAGGGA -0.29
CCTTCTGA -0.0769
ACTCTTTC -0.0436
GCTCGCAA -0.0483
AAAACCCA 0.0445
ACTGGGTG -0.0485
CCTCAGGA -0.112
CCCCAAAA -0.0955
ATATACGG 0.0947
CCTAATAA 0.0567
CTTCGTAA 0.0215
CATCTAGG -0.0637
ATGATAAA 0.0893
GGATACGA 0.089
ATAAGCCC -0.0856
CAAATAGG -0.00893
GGCATCAA -0.0439
GAACTGTA 0.0948
CTGTCAAC 0.186
CTGCTCAC -0.0607
AGACTTGG -0.0701
GTAGTGCA 0.116
ACACGACC 0.215
CCATCACG 0.00282
TCAAAAGA 0.00721
GCAGAACC -0.0847
CAAATTCG 0.0219
AACTAACT -0.00416

— the supplement of paper PMC3724861
